Source: the BET-seq Pho4 binding data (Le et al. 2018)
Some of the results follow. The energies were worked out here from pooled read counts, against the library average; single values are noisy.

Biological target: T1, Pho4 (S. cerevisiae) (UniProt P07270)
T1 sequence: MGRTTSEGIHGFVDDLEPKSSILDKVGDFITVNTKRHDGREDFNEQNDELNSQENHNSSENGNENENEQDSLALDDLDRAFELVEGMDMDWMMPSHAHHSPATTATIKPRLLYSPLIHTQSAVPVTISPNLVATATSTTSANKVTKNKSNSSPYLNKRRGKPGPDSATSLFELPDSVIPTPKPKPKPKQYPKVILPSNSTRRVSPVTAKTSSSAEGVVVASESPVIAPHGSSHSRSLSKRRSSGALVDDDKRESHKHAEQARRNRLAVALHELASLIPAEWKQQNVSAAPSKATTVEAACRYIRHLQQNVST
Assay: relative binding free energy (BET-seq); higher = weaker binding
Conditions: reference: library average

Relative binding free energy, 0.34 kcal/mol:
AGATTCACGTGATATT, ACGGTCACGTGATTGG, GGGCTCACGTGAGAGG, GGTTTCACGTGTAGTA

Relative binding free energy, 0.33 kcal/mol:
GGTGGCACGTGAATCG, CATTTCACGTGAGTTT

Relative binding free energy, 0.08 kcal/mol:
GTTATCACGTGGTGTG, GACGTCACGTGGGTCG, GGTGACACGTGTAGGG, TTGCTCACGTGGTTTT

Relative binding free energy, -0.21 kcal/mol:
AGGCGCACGTGGGTTG

Relative binding free energy, -0.25 kcal/mol:
TGGGGCACGTGCAGGG, TGAGGCACGTGGGCCA, GTGCCCACGTGGGGGC

Relative binding free energy, 0.15 kcal/mol:
GTCATCACGTGGTTGT, GGTTGCACGTGCATTT

Relative binding free energy, -0.18 kcal/mol:
AGGGGCACGTGTGTCA, TGTTGCACGTGGGGGA

Relative binding free energy, 0.39 kcal/mol:
GCTATCACGTGTTGTA

Relative binding free energy, -0.42 kcal/mol:
CCTGGCACGTGGGGGG

Relative binding free energy, -0.2 kcal/mol:
CGGGGCACGTGCGTGT, AGGGCCACGTGGGCTT, ATAGGCACGTGCTGGG

Relative binding free energy, -0.23 kcal/mol:
ACTAGCACGTGGGGTT, ATGCCCACGTGGTGGT, GTACGCACGTGGGTGC

Relative binding free energy, -0.28 kcal/mol:
TAAGGCACGTGGTGAA

Relative binding free energy, 0.19 kcal/mol:
CAATTCACGTGGTTTT, AGTTTCACGTGGGACT, GGCTGCACGTGTAAGT, GGTGGCACGTGAGGGT, GGCATCACGTGGTCGG, TAGATCACGTGTGGAA, GTGGACACGTGGAAGA, TTAGTCACGTGACTAG

Relative binding free energy, -0.06 kcal/mol:
TGGTGCACGTGTTAAA, TGGGGCACGTGTTACA, AGACGCACGTGTGTTA, TAGTACACGTGGGTCA, CTTGGCACGTGTGAGG, CTTGTCACGTGGAGTA, TATGGCACGTGATGAG

Relative binding free energy, -0.17 kcal/mol:
CTGAGCACGTGGTGGC, GAAGCCACGTGGGGGG

Relative binding free energy, -0.03 kcal/mol:
TGAGCCACGTGCGGTG, TTATACACGTGGTAAA, ATAGACACGTGGCTTG, GGGTGCACGTGTACTA, TGAGGCACGTGGGAAT, GTTGCCACGTGTGCAG, GGTTACACGTGCTTGT, ACGTGCACGTGGTTTG, TTGTGCACGTGTGGCG

Relative binding free energy, 0.22 kcal/mol:
TATTACACGTGTAAGT, GTTCACACGTGACGGG, GGGACCACGTGAGTGG

Relative binding free energy, 0.01 kcal/mol:
GCTGACACGTGTGTTG

Relative binding free energy, 0.24 kcal/mol:
AGTTCCACGTGTGTTT, AGGTGCACGTGAAAAG, AAATTCACGTGTGTGC, GTAATCACGTGTTCGG, AATGTCACGTGAATAG

Relative binding free energy, 0.04 kcal/mol:
GGGGGCACGTGTGGCT, GGGGTCACGTGGCTGT, ATGGTCACGTGTTTAA, TGTTGCACGTGATATG, TTTCTCACGTGTGGAG, TAATGCACGTGACTGG, TAGCTCACGTGGTGGA

Relative binding free energy, -0.38 kcal/mol:
CAGGGCACGTGCGGTG

Relative binding free energy, -0.05 kcal/mol:
AGTGTCACGTGTGTCT, ATAGACACGTGGGAAT, TAGGTCACGTGGCAGG, AGCTACACGTGTGTGT, AGTAACACGTGTGGCG, ACATGCACGTGTGGGT, TGTGGCACGTGGAGAA

Relative binding free energy, 0.36 kcal/mol:
AGTTTCACGTGAATGT, GGTGACACGTGAGATG, AAGAACACGTGAGTGT, TCGTTCACGTGAGATT

Relative binding free energy, 0.12 kcal/mol:
AGTGTCACGTGGAACG, ACAGTCACGTGTGTAT, ACTGGCACGTGAAGTG

Relative binding free energy, 0.25 kcal/mol:
GAGTTCACGTGTATGA, TATTTCACGTGATGGT, AATTCCACGTGAGGGT, GGGTTCACGTGTAACG

Relative binding free energy, 0.21 kcal/mol:
TTCAGCACGTGATTTG, CGGATCACGTGTTCGT, GGATTCACGTGTAGCT

Relative binding free energy, 0.03 kcal/mol:
GGTGGCACGTGGAGAC, GGGGACACGTGTTCAG, AGGTACACGTGTGTTC, GTTAACACGTGTAGTA, GGTAGCACGTGTTCGG, GGTTGCACGTGTTACT

Relative binding free energy, 0.05 kcal/mol:
TGATGCACGTGTGGGT, GGGTGCACGTGTGTCA, CGAGTCACGTGGTGTG

Relative binding free energy, -0.16 kcal/mol:
TGGGCCACGTGCTAGG

Relative binding free energy, -0.32 kcal/mol:
TCACGCACGTGGGGGT

Relative binding free energy, -0.02 kcal/mol:
GTGATCACGTGGGGAA, GGGACCACGTGGGTTT, GATGTCACGTGGCGGC, TTTGCCACGTGGCATG, TGCGGCACGTGGTGAC, TATTACACGTGTGTGG, ATTGCCACGTGTTGGT

Relative binding free energy, -0.15 kcal/mol:
GTCGCCACGTGGGATG, TATTGCACGTGGGACA, TAGGGCACGTGGCTTG, TGACGCACGTGTTTGT

Relative binding free energy, 0.14 kcal/mol:
GGGCACACGTGGTAGT

Relative binding free energy, 0.32 kcal/mol:
GTATTCACGTGATACG, TGTTTCACGTGAGCGG, AATTTCACGTGAGATG

Relative binding free energy, 0.18 kcal/mol:
CTGCTCACGTGTGGTA, AAGTCCACGTGTTTAT, GGGAGCACGTGAAGAT, TTCCTCACGTGGGGAG, TTTGGCACGTGAGGTC

Relative binding free energy, 0.16 kcal/mol:
GCGTACACGTGTGAGG, ATTTACACGTGATTAT, GTCAGCACGTGTATGA, GATGGCACGTGATGCA, CTTTACACGTGATATG

Relative binding free energy, -0.12 kcal/mol:
TGGGGCACGTGTTGTG, GCAGGCACGTGCGGGT, TATCGCACGTGTGTGG, TGTAGCACGTGCTATT

Relative binding free energy, -0.07 kcal/mol:
TTTTCCACGTGGGGTA, ATAGACACGTGTATTT, TAATGCACGTGTGGCA, GTTTGCACGTGGTACA

Relative binding free energy, 0.02 kcal/mol:
CGTAACACGTGTAGGT, GTGGTCACGTGGTATG, GATGTCACGTGTTCTG, GGTATCACGTGGGCAT

Relative binding free energy, 0.17 kcal/mol:
AAATGCACGTGAGAGG, CAGGTCACGTGTGTTC, TTACTCACGTGTAAGG, GGTTACACGTGGTTCA

Relative binding free energy, 0.11 kcal/mol:
TCAGTCACGTGTTTTA, TAAGTCACGTGTGGGA

Relative binding free energy, 0.27 kcal/mol:
TTATTCACGTGATCGA, TATTACACGTGAGTGG, TGAAACACGTGATGTT

Relative binding free energy, -0.01 kcal/mol:
CATGGCACGTGTGGTA

Relative binding free energy, -0.11 kcal/mol:
AGTGTCACGTGCTTAA, AGTACCACGTGTATGT, GGTGGCACGTGTATGC, AAAGGCACGTGGTGGC

Relative binding free energy, -0.22 kcal/mol:
AGAGGCACGTGGGCTG, TAGAGCACGTGGTGTT, TGAGGCACGTGGCAAG

Relative binding free energy, 0.35 kcal/mol:
GTTTTCACGTGTACAG

Relative binding free energy, -0.24 kcal/mol:
TGCGCCACGTGGGGTG

Relative binding free energy, 0.1 kcal/mol:
CTGGACACGTGTAGGG, GGGAACACGTGTGGAT, AGTTGCACGTGTCTAT, TTAGTCACGTGATCGG, GGGGTCACGTGCGGAG, TTATCCACGTGCGGTG

Relative binding free energy, 0.3 kcal/mol:
AATTTCACGTGGAATA, AGTCACACGTGAAGGG

Relative binding free energy, -0.09 kcal/mol:
TGGGGCACGTGTTAAT, GGGTCCACGTGGCGGT, TGTCGCACGTGGTGAG, TGGTGCACGTGTCGTA, GTAAACACGTGGTCTT, TATGTCACGTGGGTAA, GTTCGCACGTGGCGGT

Relative binding free energy, 0.43 kcal/mol:
GAGCACACGTGAGGTG

Relative binding free energy, -0.08 kcal/mol:
TAGCGCACGTGTTCGT, GGCTGCACGTGGCTTG, ATGGCCACGTGTGGAG

Relative binding free energy, 0.48 kcal/mol:
GTTTTCACGTGTGTAC

Relative binding free energy, 0.45 kcal/mol:
TTTTTCACGTGACTGT

Relative binding free energy, 0 kcal/mol:
GTATGCACGTGTAGAA, TGTGTCACGTGGAGGA, TTTGACACGTGTATGC, CTGTGCACGTGGTTTT, TTACTCACGTGGGGGG, TTCATCACGTGTGGAG

Relative binding free energy, 0.13 kcal/mol:
AGCATCACGTGTATTT, TGGATCACGTGGTAGC, TAGTTCACGTGGAGAA, GCTATCACGTGTGTAG

Relative binding free energy, 0.31 kcal/mol:
AGGCTCACGTGAGGTG, TCATTCACGTGGATGG

Relative binding free energy, 0.51 kcal/mol:
GGCTTCACGTGAACGG

Relative binding free energy, 0.28 kcal/mol:
GCTTTCACGTGGATGT, GGCGGCACGTGAGGTA, GTAGACACGTGAGCTG, GGGGACACGTGACGGC

Relative binding free energy, 0.2 kcal/mol:
GTTGCCACGTGTGAGA, ATTCGCACGTGAATGT

Relative binding free energy, -0.1 kcal/mol:
ATACACACGTGTTGGT, AATATCACGTGGGGTC, TTCTGCACGTGGTGAT, TTAGTCACGTGGGATG, TATGGCACGTGACGGG

Relative binding free energy, -0.19 kcal/mol:
TCGCGCACGTGGTAGT, GTAGGCACGTGGTGAC, AGCGCCACGTGGGTTT

Relative binding free energy, 0.07 kcal/mol:
AGCGTCACGTGTGTCG, TGCTGCACGTGTGTGA, TATGTCACGTGCAGTT

Relative binding free energy, 0.47 kcal/mol:
AAAGACACGTGAGCTG

Relative binding free energy, 0.37 kcal/mol:
CGTTCCACGTGAAGGG

Relative binding free energy, -0.26 kcal/mol:
TAAAGCACGTGGGAGG, CGTGGCACGTGGGCGC

Relative binding free energy, 0.23 kcal/mol:
ATATTCACGTGTGTGT

Relative binding free energy, 0.29 kcal/mol:
AGTTACACGTGAATTT, TTGGGCACGTGAGACT

Relative binding free energy, -0.14 kcal/mol:
TGTGCCACGTGTTATT, TATTGCACGTGGTGCT, GAGGGCACGTGGGCCT

Relative binding free energy, 0.06 kcal/mol:
AGCGGCACGTGTGAAG, TGATGCACGTGATAGA

Relative binding free energy, -0.04 kcal/mol:
TTGTGCACGTGGAAAG, TATTACACGTGGTAAT, ATAAGCACGTGTTCTG, GGTGGCACGTGTATAA, TGCGGCACGTGATGTC, GATGGCACGTGTGCAT, GGTTCCACGTGGGTCA

Relative binding free energy, 0.09 kcal/mol:
ACGGACACGTGGTGGT, TGTTACACGTGTATGG
